# According to the supplement of paper PMC8728848:
# The other results are listed elsewhere or left out.
# B1: Onconase (Rana pipiens), P22069 (protein)
# chain: QDWLTFQKKHITNTRDVDCDNIMSTNLFHCKDKNTFIYSRPEPVKAICKGIIASKNVLTTSEFYLSDCNVTSRPCKYKLKKSTNKFCVTCENQAPVHFVGVGSC
# Experiments:
# Test in all cases: glycan array binding signal (z-score within array); higher = stronger binding
# Details in all cases: glycan notation: IUPAC condensed, linker removed
# [1] = molecular target: Fuc(a1-2)Gal
# In short: (§1)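 Glycan array data came from 3228 arrays in the Consortium for Functional Glycomics database, and only arrays with an available protein sequence were kept. Glycan names were put into IUPAC-condensed notation, and columns mapping to the same glycan were averaged. The binding signal is a within-array Z-score, averaged across arrays of one protein sequence run at different concentrations or buffers and across linkers. A negative Z-score can be read as non-binding.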
# [2] = molecular target: Fuc(a1-2)Gal(b1-3)GalNAc
# In short: as §1
# [3] = molecular target: Fuc(a1-2)Gal(b1-3)GalNAc(b1-3)Gal
# In short: as §1
# [4] = molecular target: Fuc(a1-2)Gal(b1-3)GalNAc(b1-3)Gal(a1-4)Gal(b1-4)Glc
# In short: as §1
# [5] = molecular target: Fuc(a1-2)Gal(b1-3)GalNAc(b1-3)Gal(b1-4)Glc
# In short: as §1
# [6] = molecular target: Fuc(a1-2)Gal(b1-3)GalNAc(b1-4)[Neu5Ac(a2-3)]Gal(b1-4)Glc
# In short: as §1
# [7] = molecular target: Fuc(a1-2)Gal(b1-3)[Fuc(a1-4)]GlcNAc
# In short: as §1
# [8] = molecular target: Fuc(a1-2)Gal(b1-4)Glc
# In short: as §1
# [9] = molecular target: Fuc(a1-2)Gal(b1-4)GlcNAc
# In short: as §1
# [10] = molecular target: Fuc(a1-2)Gal(b1-4)GlcNAc(b1-3)Gal(b1-4)GlcNAc
# In short: as §1
# [11] = molecular target: Fuc(a1-2)Gal(b1-4)GlcNAc(b1-3)Gal(b1-4)GlcNAc(b1-3)Gal(b1-4)GlcNAc
# In short: as §1
# [12] = molecular target: Fuc(a1-2)Gal(b1-4)[Fuc(a1-3)]GalNAc(b1-3)Gal(b1-4)[Fuc(a1-3)]GlcNAc
# In short: as §1
# [13] = molecular target: Fuc(a1-2)Gal(b1-4)[Fuc(a1-3)]GalNAc(b1-3)Gal(b1-4)[Fuc(a1-3)]GlcNAc(b1-3)Gal(b1-4)[Fuc(a1-3)]GalNAc
# In short: as §1
# [14] = molecular target: Fuc(a1-2)Gal(b1-4)[Fuc(a1-3)]GlcNAc
# In short: as §1
# [15] = molecular target: Fuc(a1-2)GlcNAc
# In short: as §1
# [16] = molecular target: Fuc(a1-2)[Gal(a1-3)]Gal
# In short: as §1
# [17] = molecular target: Fuc(a1-2)[Gal(a1-3)]Gal(b1-3)GlcNAc
# In short: as §1
# [18] = molecular target: Fuc(a1-2)[Gal(a1-3)]Gal(b1-4)Glc
# In short: as §1
# [19] = molecular target: Fuc(a1-2)[Gal(a1-3)]Gal(b1-4)GlcNAc
# In short: as §1
# [20] = molecular target: Fuc(a1-2)[Gal(a1-3)]Gal(b1-4)[Fuc(a1-3)]GlcNAc
# In short: as §1
# [21] = molecular target: Fuc(a1-2)[Gal(a1-4)]Gal(b1-4)GalNAc
# In short: as §1
# [22] = molecular target: Fuc(a1-2)[GalNAc(a1-3)]Gal
# In short: as §1
# [23] = molecular target: Fuc(a1-2)[GalNAc(a1-3)]Gal(b1-3)GlcNAc
# In short: as §1
# [24] = molecular target: Fuc(a1-2)[GalNAc(a1-3)]Gal(b1-4)Glc
# In short: as §1
# [25] = molecular target: Fuc(a1-2)[GalNAc(a1-3)]Gal(b1-4)GlcNAc
# In short: as §1
# [26] = molecular target: Fuc(a1-2)[GalNAc(a1-3)]Gal(b1-4)[Fuc(a1-3)]GlcNAc
# In short: as §1
# [27] = molecular target: Fuc(a1-2)[GalNAc(a1-4)]Gal(b1-4)GlcNAc
# In short: as §1
# [28] = molecular target: Fuc(a1-3)GlcNAc
# In short: as §1
# [29] = molecular target: Fuc(a1-3)[Gal(b1-4)]GlcNAc
# In short: as §1
# [30] = molecular target: Fuc(a1-3)[Gal(b1-4)]GlcNAc(b1-4)Gal(b1-4)[Fuc(a1-3)]GlcNAc
# In short: as §1
# [31] = molecular target: Fuc(a1-3)[Gal(b1-4)]GlcNAc(b1-4)Gal(b1-4)[Fuc(a1-3)]GlcNAc(b1-4)Gal(b1-4)[Fuc(a1-3)]GlcNAc
# In short: as §1
# [32] = molecular target: Fuc(a1-3)[Gal3S(b1-4)]GlcNAc
# In short: as §1
# [33] = molecular target: Fuc(a1-3)[GalNAc(b1-4)]Gal(b1-4)GlcNAc
# In short: as §1
# [34] = molecular target: Fuc(a1-4)GlcNAc
# In short: as §1
# [35] = molecular target: Fuc(b1-3)GlcNAc
# In short: as §1
# [36] = molecular target: Gal(a1-2)Gal
# In short: as §1
# [37] = molecular target: Gal(a1-3)Gal
# In short: as §1
# [38] = molecular target: Gal(a1-3)Gal(b1-3)Glc
# In short: as §1
# [39] = molecular target: Gal(a1-3)Gal(b1-3)GlcNAc
# In short: as §1
# [40] = molecular target: Gal(a1-3)Gal(b1-4)GlcNAc
# In short: as §1
# [41] = molecular target: Gal(a1-3)Gal(b1-4)[Fuc(a1-3)]GalNAc
# In short: as §1
# [42] = molecular target: Gal(a1-3)GlcNAc
# In short: as §1
# [43] = molecular target: Gal(a1-3)[Gal(a1-4)]Gal(b1-4)GlcNAc
# In short: as §1
# [44] = molecular target: Gal(a1-4)Gal(b1-4)Gal
# In short: as §1
# [45] = molecular target: Gal(a1-4)Gal(b1-4)GalNAc
# In short: as §1
# [46] = molecular target: Gal(a1-4)GlcNAc
# In short: as §1
# [47] = molecular target: Gal(a1-6)Glc
# In short: as §1
# [48] = molecular target: Gal(b1-2)Gal
# In short: as §1
# [49] = molecular target: Gal(b1-3)Gal
# In short: as §1
# [50] = molecular target: Gal(b1-3)GalNAc
# In short: as §1
# [51] = molecular target: Gal(b1-3)GalNAc(b1-3)Gal(a1-4)Gal(b1-4)Glc
# In short: as §1
# [52] = molecular target: Gal(b1-3)GalNAc(b1-3)Gal(b1-4)Glc
# In short: as §1
# [53] = molecular target: Gal(b1-3)GalNAc(b1-3)Gal(b1-4)GlcNAc
# In short: as §1
# [54] = molecular target: Gal(b1-3)GalNAc(b1-4)Gal(b1-4)Glc
# In short: as §1
# [55] = molecular target: Gal(b1-3)GalNAc(b1-4)[Neu5Ac(a2-3)]Gal(b1-4)Glc
# In short: as §1
# [56] = molecular target: Gal(b1-3)[Fuc(a1-4)]GlcNAc
# In short: as §1
# [57] = molecular target: Gal(b1-3)[Fuc(a1-4)]GlcNAc(b1-3)Gal(b1-4)GlcNAc
# In short: as §1
# [58] = molecular target: Gal(b1-3)[Fuc(a1-4)]GlcNAc(b1-3)Gal(b1-4)[Fuc(a1-3)]GlcNAc
# In short: as §1
# [59] = molecular target: Gal(b1-3)[GlcNAc(b1-6)]GalNAc
# In short: as §1
# [60] = molecular target: Gal(b1-3)[GlcNAc(b1-6)]GlcNAc
# In short: as §1
binder,measurement,setting,value
B1,glycan array binding signal (z-score),[1],1.87
same,glycan array binding signal (z-score),[2],0.677
same,glycan array binding signal (z-score),[3],-1.12
same,glycan array binding signal (z-score),[4],0.338
same,glycan array binding signal (z-score),[5],1.01
same,glycan array binding signal (z-score),[6],-0.209
same,glycan array binding signal (z-score),[7],-1.23
same,glycan array binding signal (z-score),[8],-1.2
same,glycan array binding signal (z-score),[9],0.437
same,glycan array binding signal (z-score),[10],1.25
same,glycan array binding signal (z-score),[11],1.41
same,glycan array binding signal (z-score),[12],0.784
same,glycan array binding signal (z-score),[13],1.83
same,glycan array binding signal (z-score),[14],-0.273
same,glycan array binding signal (z-score),[15],-0.959
same,glycan array binding signal (z-score),[16],0.782
same,glycan array binding signal (z-score),[17],0.554
same,glycan array binding signal (z-score),[18],-0.953
same,glycan array binding signal (z-score),[19],-0.664
same,glycan array binding signal (z-score),[20],-0.031
same,glycan array binding signal (z-score),[21],-0.619
same,glycan array binding signal (z-score),[22],-0.105
same,glycan array binding signal (z-score),[23],0.575
same,glycan array binding signal (z-score),[24],0.784
same,glycan array binding signal (z-score),[25],-0.064
same,glycan array binding signal (z-score),[26],0.41
same,glycan array binding signal (z-score),[27],-0.285
same,glycan array binding signal (z-score),[28],-1.49
same,glycan array binding signal (z-score),[29],-0.812
same,glycan array binding signal (z-score),[30],1.21
same,glycan array binding signal (z-score),[31],0.991
same,glycan array binding signal (z-score),[32],0.289
same,glycan array binding signal (z-score),[33],-0.655
same,glycan array binding signal (z-score),[34],-1.6
same,glycan array binding signal (z-score),[35],-0.753
same,glycan array binding signal (z-score),[36],3.22
same,glycan array binding signal (z-score),[37],0.767
same,glycan array binding signal (z-score),[38],-1.11
same,glycan array binding signal (z-score),[39],-0.911
same,glycan array binding signal (z-score),[40],-0.083
same,glycan array binding signal (z-score),[41],0.431
same,glycan array binding signal (z-score),[42],0.28
same,glycan array binding signal (z-score),[43],1.3
same,glycan array binding signal (z-score),[44],0.718
same,glycan array binding signal (z-score),[45],-0.669
same,glycan array binding signal (z-score),[46],-0.82
same,glycan array binding signal (z-score),[47],-0.497
same,glycan array binding signal (z-score),[48],2.63
same,glycan array binding signal (z-score),[49],1.65
same,glycan array binding signal (z-score),[50],-0.083
same,glycan array binding signal (z-score),[51],-0.205
same,glycan array binding signal (z-score),[52],0.278
same,glycan array binding signal (z-score),[53],0.641
same,glycan array binding signal (z-score),[54],-0.145
same,glycan array binding signal (z-score),[55],0.759
same,glycan array binding signal (z-score),[56],-0.553
same,glycan array binding signal (z-score),[57],0.52
same,glycan array binding signal (z-score),[58],0.498
same,glycan array binding signal (z-score),[59],-1.22
same,glycan array binding signal (z-score),[60],-0.723
